Test results reported in PubChem BioAssay AID488969 (Vanderbilt High Throughput Screening Facility, 2010).
The full ranking holds about 110,000 compounds; the median of “z-score” is about -0.1, and the highest 2% start at about 2. The list shows a part of the results. Activity calls are given as the source filed them.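 How the source made its calls: active means z-score in the third read window above 3 or below -3; inactive means the rest.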

Target: Metabotropic glutamate receptor 8 (Rattus norvegicus) (UniProt P70579)
Assay: rat mGluR8 modulators via GIRK flux, primary screen, cell-based, thallium flux, HTS (AID 488969)
Conditions: HEK293 rat mGluR8, GIRK (G protein-gated inwardly rectifying potassium channel) thallium flux, FluoZin2; at 10 µM; stronger effect = higher value; submaximal glutamate (EC20) added with thallium

Sequence of UniProt P70579 (P70579 whole entry, looked up): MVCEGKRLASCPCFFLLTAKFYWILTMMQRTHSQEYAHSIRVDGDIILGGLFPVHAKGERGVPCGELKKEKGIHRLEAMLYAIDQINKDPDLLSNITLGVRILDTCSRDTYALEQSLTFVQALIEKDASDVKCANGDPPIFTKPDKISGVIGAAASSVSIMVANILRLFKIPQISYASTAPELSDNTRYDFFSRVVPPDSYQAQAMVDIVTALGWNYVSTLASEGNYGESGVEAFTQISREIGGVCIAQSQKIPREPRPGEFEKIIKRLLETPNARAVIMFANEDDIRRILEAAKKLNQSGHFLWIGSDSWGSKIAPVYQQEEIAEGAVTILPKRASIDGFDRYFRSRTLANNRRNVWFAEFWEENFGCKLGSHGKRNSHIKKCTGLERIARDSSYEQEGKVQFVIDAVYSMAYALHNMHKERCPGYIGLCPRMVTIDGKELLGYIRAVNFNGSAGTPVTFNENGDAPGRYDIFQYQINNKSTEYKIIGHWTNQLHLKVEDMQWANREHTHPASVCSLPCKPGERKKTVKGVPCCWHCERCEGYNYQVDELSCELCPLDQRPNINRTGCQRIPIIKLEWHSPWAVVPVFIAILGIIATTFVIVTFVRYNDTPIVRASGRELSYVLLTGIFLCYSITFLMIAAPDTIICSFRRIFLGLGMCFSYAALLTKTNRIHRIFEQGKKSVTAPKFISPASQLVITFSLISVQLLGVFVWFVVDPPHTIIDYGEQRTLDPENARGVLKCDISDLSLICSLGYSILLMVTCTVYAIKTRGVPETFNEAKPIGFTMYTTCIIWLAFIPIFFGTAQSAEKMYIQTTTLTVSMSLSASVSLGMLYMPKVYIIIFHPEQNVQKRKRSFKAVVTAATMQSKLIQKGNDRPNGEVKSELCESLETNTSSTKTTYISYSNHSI

SMILES | z-score
CCN(CC)CCN(Cc1cc2cc(C)ccc2[nH]c1=O)C(=O)Nc1ccccc1OC | 0.12
CCOC(=O)c1ccc(NC(=S)NC(=O)COc2ccccc2)cc1 | active: 3.05
CCc1ccccc1NC(=O)c1cnc2scc(C)n2c1=O | -1.42
COc1ccc(S(=O)(=O)N2CCC(C(=O)Nc3ccc(OC)c(OC)c3)CC2)cc1C | 0.0355
Cc1cc2ccccc2nc1SCC(=O)Nc1nc(-c2ccccc2)cs1 | -0.238
Cc1cccc(C(=O)Nc2sc(C)c(-c3ccccc3)c2C#N)c1 | -0.223
COc1ccccc1C1=Nc2cccc3cccc(c23)N1 | -0.248
Cc1ccc(-n2c(SCc3cn4ccsc4n3)nc3ccccc3c2=O)cc1 | -2.14
O=C(Nc1cccnc1)c1ccc(Br)s1 | -0.00938
Cc1ccc(/C=N/NC(=O)c2ccoc2C)s1 | 0.516
COCCN=c1scc(-c2ccccc2)n1/N=C/c1c[nH]c2ccccc12 | 2.05
COc1cc(S(=O)(=O)NCc2ccccc2)ccc1Br | -0.127
O=C(Cn1ccc2ccccc2c1=O)NCCC(=O)Nc1ccc2c(c1)OCCO2 | 0.489
CC(C)c1ccc(NC(=S)NCCc2c[nH]c3ccccc23)cc1 | -0.264
O=C1CC(c2ccccc2)CC(O)=C1C=NC1CCCC1 (configuration not stated) | -0.103
O=C1c2cccc3cccc(c23)C(=O)N1OS(=O)(=O)c1ccccc1 | -0.152
Cc1ccccc1OCCCSc1nc2ccccc2[nH]1 | 0.419
COc1cccc(C2(CSc3nnc(-c4cc(OC)c(OC)c(OC)c4)o3)OCCO2)c1 | -0.328
Nn1c(SCC(=O)N2CCOCC2)nnc1-c1ccc(Cl)cc1Cl | 0.0848
CC(=O)Nc1cccc(NC(=O)CSc2nnnn2C(C)C)c1 | 0.073
CCOC(=O)c1c(-c2cccs2)csc1NC(=O)CC(C)C | 0.443
Cc1nn(CC(=O)Nc2sc3c(c2C#N)CCC(C(C)(C)C)C3)c(C)c1[N+](=O)[O-] (configuration not stated) | -0.313
CC(C)c1ccccc1OCC(=O)NCC(c1cccs1)N1CCOCC1 (configuration not stated) | -0.448

SMILES | z-score
Cc1c(C#N)c2ncn(CC#N)c(=O)c2n1-c1ccccc1 | active: 3.28
Cc1ccc(Oc2ccccc2)c(NC=O)c1 | -0.608
Cc1cccc(NC(NC(=O)Cc2ccccc2)C(Cl)(Cl)Cl)c1 (configuration not stated) | -0.0674
N#CC1=C(SCC(N)=O)NC(=O)CC1c1ccccc1Cl (configuration not stated) | 0.0189
COc1ccc(NC(C)=O)cc1NC(=O)CN1CCN(C(=O)c2ccco2)CC1 | -0.164
CCc1cccc(NC(=O)NC(=O)Cn2nnc(C(=O)OC)c2C(=O)OC)c1 | -0.158
Cc1ccccc1CS(=O)(=O)c1snnc1C | -0.141
COc1ccc(C)cc1NC(=O)CSc1nnc(CC(=O)Nc2ccccc2C)n1C | -0.0136
CCn1cc([N+](=O)[O-])c(C(=O)N2N=C(c3ccc4ccccc4c3)CC2c2cc(Br)ccc2O)n1 (configuration not stated) | -0.0686
Cc1cc2n(n1)C(c1ccsc1)Nc1ccccc1-2 (configuration not stated) | 0.0208
CN(C)c1nc(Cl)cc(N2CCOCC2)n1 | 0.432
CCCCOC(=O)CNc1n[nH]c(=S)[nH]c1=O | 0.182
CCc1cccc(C)c1NC(=O)CCCC(=O)O | 0.0858
CC(=O)Nc1ccc(S(=O)(=O)Nc2cccc(N(C)S(C)(=O)=O)c2)cc1 | 0.326
O=C(Nc1ccc(N2CCN(C(=O)c3ccco3)CC2)cc1)c1cccs1 | -1.1
COc1ccc(-c2ccc(CCC(=O)O)n2NC(=O)c2cccs2)cc1 | 0.347
O=C(COC(=O)c1ccccn1)NCCCc1ccccc1 | 0.106
Cc1ccc(NC(=O)Nc2ccc3oc(C)nc3c2)cc1 | -0.385
CC(C)(C)OC(=O)N1CCC(C(=O)O)CC1 | -0.427
CC(C)CCNC(=O)c1sc2ccc(S(=O)(=O)N3CCCCC3)cc2c1N | -0.0861
O=C(/C=C/c1ccc(Cl)c([N+](=O)[O-])c1)Nc1ccc(NC(=O)c2ccco2)cc1 | 0.571
CNC(=O)c1ccc(-c2ccc(OC)cc2)s1 | -0.0761
CCn1c(=NC(=O)CN2C(=O)CCC2=O)sc2c(C)cc(C)cc21 | -0.611

SMILES | z-score
CCOC(=O)/C(C#N)=C1/C=C(C)NC(c2ccccc2O)=N1 | -1.53
Cn1ccnc1SCC(=O)Nc1ccc(Oc2ccccc2)cc1 | 2.29
CCOC(=O)C1=C(O)/C(=C/c2ccc(C)o2)SC1=NC(=O)c1ccccc1C | 0.0866
Cc1cc(C)c(C#N)c(SCC(=O)N(C)C2CCCCC2)n1 | -0.992
CCN1CCN(C(=O)CN(C)S(=O)(=O)c2ccc(OC)cc2)CC1 | 0.888
CCOC(=O)c1c(C)oc2c1c(C(c1ccccc1)N1CCOCC1)c(O)c1ccccc12 (configuration not stated) | -0.228
Cn1c2ccccc2c2cc(C(=O)O)ccc21 | 0.933
Nc1c(-c2ccccc2)cnn1-c1cccc([N+](=O)[O-])c1 | -0.00911
O=C(CNS(=O)(=O)c1ccccc1)NCC(=O)OCc1ccccc1F | -0.319
Cc1ccc(C(=O)N(c2ccccc2)C2CC(C)N(C(=O)c3ccco3)c3ccccc32)cc1 (configuration not stated) | -0.203
O=C(Nn1c(-c2ccccc2)nc2ccccc2c1=O)c1cccs1 | 0.0399
Nn1c(=O)c2ccccc2n2c(SCc3ccc(C(F)(F)F)cc3)nnc12 | -0.212
O=C(CSc1nc(-c2cccs2)cc(C(F)(F)F)n1)NCc1ccco1 | -1.02
CC(C)(C)C(=O)N1CCC[C@@]1(CO)C(=O)O | -0.231
Cc1cccc(NC(=O)c2ccc(S(=O)(=O)N(C)C)cc2)c1 | 0.0927
CCCCN(CC)CCCNC(=O)C1c2ccccc2C(=O)N(C)C1c1cn(C)c2ccccc12 (configuration not stated) | 1.95
Cc1ccccc1OCC(=O)N/N=C/c1ccc2c(c1)OCCO2 | -0.285
O=C1C(NS(=O)(=O)c2ccc(Cl)cc2)=C(N2CCCCC2)C(=O)c2ccccc21 | -0.0684
CCSc1nnc(NC(=O)CSc2c(Cl)cccc2Cl)s1 | -0.191
Cc1cc2nc(-c3ccc(SCc4ccccc4C#N)nc3)[nH]c2cc1C | -0.28
Cc1ccc(-c2cc3nc(C)cc(NCc4ccco4)n3n2)cc1 | -0.267
O=C(Nc1cccc2ccccc12)N1CC=C(c2ccccc2)CC1 | 0.499
CCn1c(=O)cc(SCC(=O)NCc2ccc(C)cc2)c2ccccc21 | -0.0173

SMILES | z-score
O=C(COc1ccc(S(=O)(=O)NC2CCCCC2)cc1Cl)Nc1ccc2c(c1)OCO2 | 0.2
Cc1nc(=O)cc(-c2ccccc2)n1-c1ccccc1 | 1.26
CC[N+](C)(CC)CC(O)COCC1COc2ccccc2O1 (configuration not stated) | -0.0461
CC(C)(C)NC(=O)C(=O)N/N=C/c1cccs1 | -0.177
CCCc1nc(SCC(=O)Nc2cc(C)on2)c2c(=O)n(C)c(=O)n(C)c2n1 | 0.613
Cc1cc(=O)oc2cc(OCC(=O)N3CCCC(C)C3)ccc12 (configuration not stated) | -1.18
Cc1ccccc1NC1c2ccccc2C(=O)N1Cc1ccco1 (configuration not stated) | -0.438
O=C1N(CC(=O)N2CCc3ccccc32)CCN1Cc1ccc(Cl)cc1 | 0.587
COc1ccccc1/C=C/C=N/n1c(COc2ccccc2)n[nH]c1=S | 0.0265
CCN1CCN(S(=O)(=O)c2ccc3[nH]c(=O)oc3c2)CC1 | 0.161
CCOc1ccc2ccccc2c1C(=O)Nc1cc(=O)n(C)c(=O)n1C | 0.291
COc1ccc2nc(NC(=O)c3cccnc3SC)sc2c1 | 0.203
CCn1c(CSCc2ccc(C)cc2)nnc1SCC(=O)NCc1ccccc1 | -0.133
Cc1cc(C)n(-c2nc3ccccc3nc2N2CCN(S(=O)(=O)c3ccc(F)c(C)c3)CC2)n1 | 0.635
O=C(c1cccc(F)c1)N1CCN(c2cc(N3CCCCC3)c(F)cc2[N+](=O)[O-])CC1 | -0.121
Cc1c(C(=O)Nc2ccc(-c3nnc4n3CCCCC4)cc2)oc2ccc(Br)cc12 | -0.49
CC(CCc1ccccc1)NC(=O)c1ccc(NC(=O)c2ccc(Cl)cc2Cl)cc1 (configuration not stated) | -0.138
CN1CCN(S(=O)(=O)c2cccc(C(=O)Nc3nc(-c4ccccc4)cs3)c2)CC1 | -0.528
CC1CCCN(CCC(=O)Nc2ccc(Br)cc2)C1 (configuration not stated) | 0.477
Oc1c(C(Nc2ccccn2)c2cccnc2)cc(Cl)c2cccnc12 (configuration not stated) | -0.646
COc1ccc(-c2cc(=O)c3ccccc3n2C)cc1 | -0.189
CCn1cnc2cc(NC(=O)c3ccco3)ccc21 | -0.829
CS(=O)(=O)N(Cc1ccc(Cl)cc1)c1ccc(C(=O)NCCSc2ccccn2)cc1 | -0.163

SMILES | z-score
CCCNC(=O)CS(=O)Cc1nc(-c2ccccc2C)oc1C (configuration not stated) | -0.476
CCOC(=O)CC(=O)CSc1[nH]c(=O)cc(C)c1C#N | 0.214
COC(=O)Cn1nc(-c2ccccc2)c2cc(Cl)ccc21 | -0.209
CC(C)NCc1cccc([N+](=O)[O-])c1 | -0.33
C/C(=N\NC(=O)c1ccc([N+](=O)[O-])cc1)c1cc2ccccc2oc1=O | -0.125
O=C(Oc1ccc(-n2cnnn2)cc1)c1ccco1 | 0.442
Cc1cc(/C=N/NC(=O)CC2(C)OCCO2)c(C)n1-c1ccc(Cl)c(Cl)c1 | -3
O=C1CN(C(=O)CSc2nnc(C3CC3)n2-c2ccccc2)c2ccccc2N1 | -0.0948
O=C(NC1CCCCC1)c1ccc(N2CCCC2=O)cc1 | -0.692
CSc1nnc(-c2sccc2OCc2ccc(C)cc2)n1C | -0.444
CCC(=O)NNc1cccc(Cl)n1 | 0.283
Fc1ccc(NC(=S)Nc2ccccc2OC(F)F)cc1Cl | active: 6.05
Cc1nc2ccccc2c(-c2ccccc2)c1CC(=O)O | -0.184
Nc1c(C(=O)Nc2ccccc2)sc2nc(-c3ccco3)ccc12 | -0.431
COc1ccc(N2CCN(Cc3cc4c(cc3O)CCC4)CC2)cc1 | 0.133
CO[C@@H]1O[C@@H]2COC(c3ccccc3)O[C@@H]2[C@@H](OC)[C@@H]1O (some centres not stated) | 0.672
O=C(Cn1c(=O)oc2ccccc21)Nc1ccc(S(=O)(=O)N2CCCCC2)cc1 | -0.298
COc1ccc(/C=C(/NC(=O)/C=C/c2ccccc2)C(=O)N2CCOCC2)cc1 | -0.18
Cc1nccn1CC(=O)N/N=C/c1ccc(O)c(O)c1 | -0.0858
COc1ccc2c(CC(=O)Nc3ccc(OC)c(NS(=O)(=O)c4ccc(F)cc4)c3)coc2c1 | -0.0702
